Data on 57 compounds can be found in paper PMC4336329 (PLoS ONE, 2015).

The campaign covered roughly 310,000 compounds. About 2,200 (0.71%) showed an effect of 50% or more. Effects have a minus sign here. The list shows a part of the results.

In the test the target is human ether-à-go-go-related gene (hERG) potassium channel (human, UniProt Q12809). Put plainly: primary screen, population patch clamp on CHO cells stably expressing hERG.
Sequence of human ether-à-go-go-related gene (hERG) potassium channel (Q12809 whole entry, looked up): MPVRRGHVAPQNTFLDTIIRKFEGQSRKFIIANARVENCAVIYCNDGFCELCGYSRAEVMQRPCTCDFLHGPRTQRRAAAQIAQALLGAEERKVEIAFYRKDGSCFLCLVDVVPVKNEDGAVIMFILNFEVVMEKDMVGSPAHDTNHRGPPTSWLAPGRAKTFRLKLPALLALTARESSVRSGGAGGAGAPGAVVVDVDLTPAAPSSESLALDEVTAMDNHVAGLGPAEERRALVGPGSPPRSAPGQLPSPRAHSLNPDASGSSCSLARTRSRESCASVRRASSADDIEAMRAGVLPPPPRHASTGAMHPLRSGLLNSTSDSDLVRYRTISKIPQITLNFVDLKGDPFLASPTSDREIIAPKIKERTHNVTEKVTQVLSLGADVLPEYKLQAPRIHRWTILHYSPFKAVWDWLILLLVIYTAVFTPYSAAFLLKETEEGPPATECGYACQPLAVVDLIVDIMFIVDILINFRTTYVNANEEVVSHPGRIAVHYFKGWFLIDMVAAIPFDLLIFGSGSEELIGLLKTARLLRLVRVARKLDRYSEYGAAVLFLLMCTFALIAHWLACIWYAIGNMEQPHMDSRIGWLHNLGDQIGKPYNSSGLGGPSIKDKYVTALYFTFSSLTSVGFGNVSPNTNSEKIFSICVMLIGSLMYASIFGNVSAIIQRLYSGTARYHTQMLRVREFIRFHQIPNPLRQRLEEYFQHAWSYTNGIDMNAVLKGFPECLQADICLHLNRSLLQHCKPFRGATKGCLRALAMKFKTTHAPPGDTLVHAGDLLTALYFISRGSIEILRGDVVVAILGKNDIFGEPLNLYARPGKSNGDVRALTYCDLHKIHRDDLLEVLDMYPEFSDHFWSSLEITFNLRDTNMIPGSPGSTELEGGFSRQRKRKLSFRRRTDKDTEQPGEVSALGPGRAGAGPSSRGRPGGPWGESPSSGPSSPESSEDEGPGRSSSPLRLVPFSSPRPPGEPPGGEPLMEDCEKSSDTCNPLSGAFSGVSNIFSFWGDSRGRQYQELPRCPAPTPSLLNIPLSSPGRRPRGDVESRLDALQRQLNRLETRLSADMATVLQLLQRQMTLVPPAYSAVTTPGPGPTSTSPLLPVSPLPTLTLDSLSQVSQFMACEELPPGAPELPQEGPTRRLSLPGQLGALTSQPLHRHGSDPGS
Consider `Cc1nn(Cc2ccccc2Cl)c2sc(C(=O)OC3CCCC3=O)cc12` (stereo not drawn), for which the “hERG current change (%, negative = inhibition) at 1uM” value was -0.756%.

Take `CCN(CC)C(=O)C1CCCN(c2ncnc3c2cnn3-c2cccc(C)c2)C1` (stereo not drawn): the “hERG current change (%, negative = inhibition) at 1uM” value was found to be 11.5%. With `Cc1ccc(Nc2nnc(SC3CCOC3=O)s2)cc1` (stereo not drawn), the “hERG current change (%, negative = inhibition) at 1uM” value is recorded as 13.8%. In the case of `O=C(Nc1nc2ccccc2[nH]1)c1ccc(F)cc1`, the “hERG current change (%, negative = inhibition) at 1uM” value was 1.73%. The figure for `CC(C)OCCCNC(=O)Cn1ccc2cc(S(=O)(=O)N3CCCCCC3)ccc21` is 7.02%.

As to `CCOC(=O)c1ccc(S(=O)(=O)N2CCC(N3CCCCC3)CC2)cc1`, the “hERG current change (%, negative = inhibition) at 1uM” value was -0.396%. To `Cc1ccc(SCC(=O)OC(C)C(=O)NCc2ccccc2)cc1` (stereo not drawn) belongs -2%; to `CCOC(=O)C1(CCOc2ccccc2)CCN(Cc2cccc(OC)c2O)CC1`, -54.1%; to `Cc1csc(SCC(=O)Nc2c(C)n(C)n(-c3ccccc3)c2=O)n1`, 12.1%. The figure for `Cc1cccc(NC(=O)C2CCCN2C(=O)Oc2ccccc2)c1` (stereo not drawn) is 0.962%. The figure for `Cc1ccc(CN2C(=O)C3CCCN3c3ncccc32)cc1` (stereo not drawn) is 12.7%; for `Cc1ccc(N2C3=C(C(=O)CC(C)(C)C3)C(c3cn(C)nc3C)C3=C2CC(C)(C)CC3=O)cc1` it is 7.22%; for `CCc1ccc(OC(=O)c2cncc(Br)c2)cc1` it is 14.9%. Take `O=C1CC(SC2=NCCS2)C(=O)N1c1ccc(Cl)cc1` (stereo not drawn): the “hERG current change (%, negative = inhibition) at 1uM” value was found to be 0.889%. The figure for `COc1ccc(NC(=S)N(CCN(C)C)C(C)c2ccco2)cc1` (stereo not drawn) is -1.04%; for `CC(NC(=O)c1cncc(Br)c1)c1ccc(S(N)(=O)=O)cc1` (stereo not drawn) it is -2%. Turning to `COc1cc(C(=O)N/N=C/c2ccc(OC(=O)c3cccc(C)c3)c(OC)c2)ccc1O`, the “hERG current change (%, negative = inhibition) at 1uM” value is 9.86%. To `CCCCCC(=O)NNC1CC(=O)N(c2cccc(OCC)c2)C1=O` (stereo not drawn) belongs 10.2%; to `COC(=O)c1ccc(NC(=O)Cn2nnc3ccccc32)cc1`, 11.9%. To `CC(C)(C)C(=O)OCc1cn(-c2ccc(Cl)cc2)nn1` belongs 0.569%.

Take `CN(c1ccccc1)c1ncccn1`: the “hERG current change (%, negative = inhibition) at 1uM” value was 13.6%. As for `O=[N+]([O-])c1ccc2[nH]c3c(c2c1)CCCC3`, the “hERG current change (%, negative = inhibition) at 1uM” value was 13.8%. The figure for `Cc1ccc(NC(=O)C(=O)NCc2ccc(/C=N/NC(=O)c3c(C)nc4ccccn34)o2)cc1` is 10.4%. For `O=C1OC(c2ccc3c(c2)OCO3)=N/C1=C\c1ccc(C(=O)O)cc1`, the “hERG current change (%, negative = inhibition) at 1uM” value is given as 17.4%. The figure for `COc1cc2c(cc1OC)C(C)N(C(=O)c1cc3c(s1)-c1ccccc1OC3)CC2` (stereo not drawn) is 6.48%; for `Cc1cc2cc(CCNC(=O)C3c4ccccc4Oc4ccccc43)c(=O)[nH]c2cc1C` it is -1.73%.

As for `Cc1c(NC(=O)OCCNC(=O)Nc2ccccc2)sc(=S)n1C`, the “hERG current change (%, negative = inhibition) at 1uM” value was determined as 16%. To `Oc1c(C=NCc2ccccc2)sc2ccccc12` belongs 13.3%; to `CCC(C)(C(=O)NC1CCCCC1)N(Cc1ccco1)C(=O)c1ccccn1` (stereo not drawn), -2.32%; to `CNC(=O)c1sccc1S(=O)(=O)Cc1c(Cl)cccc1Cl`, 3.02%. To `COc1ccccc1-c1cn(C(C)(C)C)nc1C` belongs 10.2%; to `CC(=O)C1=C(O)C(=O)N(CCO)C1c1ccccc1` (stereo not drawn), 8.42%. To `O=C1c2ccccc2-c2nc3ncnn3c(-c3ccccc3Cl)c21` belongs 5.18%; to `CCOc1cc(-c2cc(-c3ccc(NC(C)=O)cc3)nc(N)c2C#N)ccc1O`, 11.4%.

For the compound `Cc1ccc(Cc2nc(-c3cccnc3)no2)cc1`, the “hERG current change (%, negative = inhibition) at 1uM” value is reported as 11.6%. To `COC(=O)c1ccc(C(=S)NCC2(N(C)C)CCCCC2)cc1` belongs 13%; to `COc1ccc(C2=NOC(C(=O)NCc3ccc(F)cc3)C2)cc1` (stereo not drawn), -8.9%.

With `C=CCn1c(O)c(N=NC(=S)Nc2cccc(C)c2)c2ccccc21`, the “hERG current change (%, negative = inhibition) at 1uM” value was found to be 2.21%.

In the case of `CC(=O)c1ccccc1OCC(O)Cn1ccnc1` (stereo not drawn), the “hERG current change (%, negative = inhibition) at 1uM” value came to 16.6%. As for `NS(=O)(=O)c1ccc(CCNC(=O)c2cc(-c3cc(Cl)ccc3O)n[nH]2)cc1`, the “hERG current change (%, negative = inhibition) at 1uM” value is on record as 11.9%. Regarding `COc1cc(CCC(=O)N2CCN(S(=O)(=O)c3ccc(C)cc3)CC2)cc(OC)c1OC`, the “hERG current change (%, negative = inhibition) at 1uM” value is -3.92%. `CC(C)S(=O)(=O)C/C(N)=N/OC(=O)c1cc(Cl)cc(Cl)c1`: the “hERG current change (%, negative = inhibition) at 1uM” value is recorded as 16.4%.

With `CC(=O)c1ccc(N2CCN(CC(O)COC(c3ccccc3)c3ccccc3C)CC2)cc1` (stereo not drawn), the “hERG current change (%, negative = inhibition) at 1uM” value amounted to 9%. The figure for `COC(=O)C1=CN(Cc2ccc(OC)cc2)C=C(C(=O)OC)C1c1cc(OC)c(OC)c(OC)c1` is 13.5%; for `O=C(COc1ccc(F)cc1)N(c1ccccn1)C1CCCCC1` it is 6.95%; for `C=CCNc1nc(-c2sc(NC(=O)CC)nc2C)cs1` it is 8.55%. The figure for `CCN(CC)CCCNC(=O)c1cn(C)c2ccc(S(=O)(=O)N(C)C3CCCCC3)cc2c1=O` is 12.2%. To `COC(=O)c1ccc(-c2noc(CN3CCCC(CNC(C)=O)C3)n2)cc1` (stereo not drawn) belongs 14.5%; to `COC(=O)c1c(Cc2ccccc2Cl)c[nH]c1C`, 8.16%. Regarding `Cc1cccc(-c2oc3ccc(-c4ccc5c(c4)OCO5)cc3c2C(=O)OCc2ccc(O)cc2)c1`, the “hERG current change (%, negative = inhibition) at 1uM” value turned out to be 7.23%. The figure for `C[C@@H]1CN(C(=O)c2cc(COc3cccc(C(F)(F)F)c3)on2)C[C@H](C)O1` is 2.57%.

On to `CCCCN(CCCNC(=O)Cn1nc(CC)n2c(cc3sc(C)cc32)c1=O)Cc1ccccc1`, for which the “hERG current change (%, negative = inhibition) at 1uM” value was -1.82%. To `O=C(NCc1ccco1)C1CC(c2c(Cl)cccc2Cl)=NO1` (stereo not drawn) belongs 20.9%; to `CC(=O)N1c2ccc(S(=O)(=O)NCCC(=O)N3CCCC(C)C3)cc2CC1C` (stereo not drawn), 13.2%. The figure for `O=C(CSc1c2c(nc3ccccc13)CCC2)N1CCCC1` is 1.89%; for `COc1cccc(CN(C)CC(=O)NC(=O)NCc2ccco2)c1` it is 12.6%. The figure for `CC(=O)N1CCN(C(=O)c2ccc(-c3cccc(C(F)(F)F)c3)o2)CC1` is -19.2%.
